The structures appear in SMILES notation. Where a name gives a salt, the structure may show the parent alone. Some of the results follow. Repeats are few or missing, and single values can be far off.
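Also: viability estimated indirectly by image-based GFP quantification with live-cell imaging of the constitutively GFP-expressing human colorectal cancer line, no immune cells added.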

This assay deals with HCT116-GFP. In words: HCT116-GFP viability (GFP intensity) relative to untreated control, monoculture; higher = less cancer cell killing. As to conditions: culture: HCT116-GFP monoculture; 10 µM; 72 h.
On to `CC(C(O)c1ccc(O)cc1)N1CCC(Cc2ccccc2)CC1` (stereo unspecified) [Ifenprodil tartrate], for which the HCT116-GFP viability came to 104%.

In the case of `CN1CCN2c3ncccc3Cc3ccccc3C2C1` (stereo unspecified) [Mirtazapine], the HCT116-GFP viability came out at 98.6%.

In the case of `CC(C)[C@H](N)C(=O)OCCOCn1cnc2c(=O)nc(N)[nH]c21` [Valacyclovir hydrochloride], the HCT116-GFP viability was found to be 109%.

For the compound `CC1(C)O[C@@H]2C[C@H]3[C@@H]4C[C@H](F)C5=CC(=O)C=C[C@]5(C)[C@@]4(F)[C@@H](O)C[C@]3(C)[C@]2(C(=O)CO)O1` [Fluocinolone acetonide], the HCT116-GFP viability worked out at 121%.

On to `COc1cc(NS(=O)(=O)c2ccc(N)cc2)ncn1` [Sulfamonomethoxine], for which the HCT116-GFP viability was found to be 92.9%.

Consider `Cc1cc(C)nc(NS(=O)(=O)c2ccc(N)cc2)n1` [Sulfamethazine sodium salt], for which the HCT116-GFP viability was 110%.

Take `CN(C(=O)CN(CCO)CC(=O)N(C)C(C)(C)Cc1ccccc1)C(C)(C)Cc1ccccc1` [Oxethazaine]: the HCT116-GFP viability turned out to be 60.9%.

On to `COC(=O)N/N=C/c1c[n+]([O-])c2ccccc2[n+]1[O-]` [Carbadox], for which the HCT116-GFP viability is 92.3%.

`CCOC(=O)/C=C(C)/C=C/C=C(C)/C=C/c1c(C)cc(OC)c(C)c1C` [Etretinate]: the HCT116-GFP viability came out at 84.7%.

For the compound `Cc1c(N)c(=O)n(-c2ccccc2)n1C` [Ampyrone], the HCT116-GFP viability was 94.8%.

For the compound `NC[C@H]1O[C@H](O[C@H]2[C@H](O)[C@@H](O[C@H]3O[C@H](CO)[C@@H](O)[C@H](N)[C@H]3O)[C@H](N)C[C@@H]2N)[C@H](N)C[C@@H]1O` [Tobramycin], the HCT116-GFP viability came to 64.5%.

Consider `C=CCOc1ccccc1OCC(O)CNC(C)C` (stereo unspecified) [Oxprenolol hydrochloride], for which the HCT116-GFP viability was found to be 95.3%.

As to `O=P(O)(O)C(O)(Cn1ccnc1)P(=O)(O)O` [Zoledronic acid hydrate], the HCT116-GFP viability was 119%.

Consider `Cc1cc(C(C)(C)C)cc(C)c1CC1=NCCN1` [Xylometazoline hydrochloride], for which the HCT116-GFP viability stood at 98.6%.

Turning to `CCN(CC)C(=O)C1(c2ccccc2)CC1CN` (stereo unspecified) [Milnacipran hydrochloride], the HCT116-GFP viability stood at 91.9%.

Take `CCN(CCCCOC(=O)c1ccc(OC)c(OC)c1)C(C)Cc1ccc(OC)cc1` (stereo unspecified) [Mebeverine hydrochloride]: the HCT116-GFP viability worked out at 97.1%.

Regarding `CCN(CC)CCOCCOC(=O)C1(c2ccccc2)CCCC1` [Carbetapentane citrate], the HCT116-GFP viability was determined as 94.9%.

Turning to `N[C@H]1CONC1=O` [(S)-(-)-Cycloserine], the HCT116-GFP viability stood at 88.6%.

For the compound `CCCCC1C(=O)N(c2ccccc2)N(c2ccc(O)cc2)C1=O` (stereo unspecified) [Oxyphenbutazone], the HCT116-GFP viability is 25.9%.

Take `CCN(CC)C(=O)Nc1ccc(OCC(O)CNC(C)(C)C)c(C(C)=O)c1` (stereo unspecified) [Celiprolol hydrochloride]: the HCT116-GFP viability is 99.1%.

As for `COc1cc2nc(N3CCN(C(=O)C4COc5ccccc5O4)CC3)nc(N)c2cc1OC` (stereo unspecified) [Doxazosin mesylate], the HCT116-GFP viability was 70%.

With `CCOC1O[C@H]([C@@H](COCc2ccccc2)OCc2ccccc2)[C@H](OCc2ccccc2)[C@H]1O` (stereo partly specified) [Tribenoside], the HCT116-GFP viability amounted to 80.9%.

Consider `CNCC(O)c1ccc(O)c(O)c1` (stereo unspecified) [Racepinephrine hydrochloride], for which the HCT116-GFP viability is 66.2%.

In the case of `CCN(CC)CCNC(=O)c1ccc(N)cc1` [Procainamide hydrochloride], the HCT116-GFP viability worked out at 99.9%.

On to `CC(=O)Nc1c(I)c(C(=O)N[C@H]2C(O)O[C@H](CO)[C@@H](O)[C@@H]2O)c(I)c(N(C)C(C)=O)c1I` (stereo partly specified) [Metrizamide], for which the HCT116-GFP viability was 108%.

With `CC[C@H]1OC(=O)[C@H](C)[C@@H](O[C@H]2C[C@@](C)(OC)[C@@H](O)[C@H](C)O2)[C@H](C)[C@@H](O[C@@H]2O[C@H](C)C[C@H](N(C)C)[C@H]2O)[C@](C)(O)C[C@@H](C)CN(C)[C@H](C)[C@@H](O)[C@]1(C)O` [Azithromycin], the HCT116-GFP viability came to 97.3%.

Consider `C[C@@H]1CCC[C@H](C)N1NC(=O)c1ccc(Cl)c(S(N)(=O)=O)c1` [Clopamide], for which the HCT116-GFP viability stood at 94.5%.

As for `CN[C@H]1CC[C@@H](c2ccc(Cl)c(Cl)c2)c2ccccc21` [Sertraline], the HCT116-GFP viability worked out at 43.6%.

Take `CC(CNC1CCCCC1)OC(=O)c1ccccc1` (stereo unspecified) [Hexylcaine hydrochloride]: the HCT116-GFP viability amounted to 98.6%.

Turning to `Nc1ccc(S(=O)(=O)Nc2nccs2)cc1` [Sulfathiazole], the HCT116-GFP viability is 107%.

Turning to `Cc1ccc(-c2cc(C(F)(F)F)nn2-c2ccc(S(N)(=O)=O)cc2)cc1` [Celecoxib], the HCT116-GFP viability is 69.2%.

Regarding `C[C@]12CC[C@@H]3c4ccc(O)cc4C[C@@H](CCCCCCCCC[S+]([O-])CCCC(F)(F)C(F)(F)F)[C@H]3[C@@H]1CC[C@@H]2O` (stereo partly specified) [Fulvestrant], the HCT116-GFP viability came to 71.9%.

For `CO/N=C(\C(=O)N[C@@H]1C(=O)N2C(C(=O)O)=C(COC(C)=O)CS[C@H]12)c1csc(N)n1` [Cefotaxime sodium salt], the HCT116-GFP viability was 98.1%.

For the compound `CCCCOc1cc(C(=O)OCCN(CC)CC)ccc1N` [Benoxinate hydrochloride], the HCT116-GFP viability turned out to be 93.8%.

As to `Cc1cc2cc3c(C)cc(=O)oc3c(C)c2o1` [Trioxsalen], the HCT116-GFP viability turned out to be 89.8%.

As for `CC(=O)Nc1nnc(S(N)(=O)=O)s1` [Acetazolamide], the HCT116-GFP viability stood at 115%.

As to `CC(C)Oc1ccc2c(=O)c(-c3ccccc3)coc2c1` [Ipriflavone], the HCT116-GFP viability was 96.6%.

For `Clc1ccc2nsnc2c1NC1=NCCN1` [Tizanidine hydrochloride], the HCT116-GFP viability came to 107%.

Turning to `NNC(=O)c1ccncc1` [Isoniazid], the HCT116-GFP viability came to 92.2%.

Consider `CC1(C)O[C@@H]2C[C@H]3[C@@H]4C[C@H](F)C5=CC(=O)CC[C@]5(C)[C@H]4[C@@H](O)C[C@]3(C)[C@]2(C(=O)CO)O1` [Flurandrenolide], for which the HCT116-GFP viability turned out to be 100%.

Regarding `CCCCc1oc2ccccc2c1C(=O)c1cc(I)c(OCCN(CC)CC)c(I)c1` [Amiodarone hydrochloride], the HCT116-GFP viability was 65.1%.

`O=C(O)c1cccnc1` [Niacin]: the HCT116-GFP viability is 95.8%.

On to `Cc1cccc(N(C)C(=S)Oc2ccc3ccccc3c2)c1` [Tolnaftate], for which the HCT116-GFP viability came to 101%.

Take `O=c1[nH]c(=O)n([C@H]2C[C@H](O)[C@@H](CO)O2)cc1I` [Idoxuridine]: the HCT116-GFP viability is 58.5%.

Turning to `COc1ccc(-c2ccc3cc(C(=O)O)ccc3c2)cc1C12CC3CC(CC(C3)C1)C2` [Adapalene], the HCT116-GFP viability turned out to be 11.5%.

On to `CCN1CCCC1CNC(=O)c1cc(S(N)(=O)=O)ccc1OC` (stereo unspecified) [Sulpiride], for which the HCT116-GFP viability was found to be 100%.

As for `CC12CC3CC(C)(C1)CC(N)(C3)C2` [Memantine Hydrochloride], the HCT116-GFP viability was found to be 109%.

`C#C[C@]1(O)CC[C@H]2[C@@H]3CCC4=Cc5oncc5C[C@]4(C)[C@H]3CC[C@@]21C` [Danazol]: the HCT116-GFP viability was 83.4%.

`CCOc1ccc(Cc2nccc3cc(OCC)c(OCC)cc23)cc1OCC` [Ethaverine hydrochloride]: the HCT116-GFP viability amounted to 33%.

On to `O=C(Nc1ccc([N+](=O)[O-])cc1Cl)c1cc(Cl)ccc1O` [Niclosamide], for which the HCT116-GFP viability was found to be 5.97%.

As to `CN1CCCN=C1/C=C/c1cccs1` [Pyrantel tartrate], the HCT116-GFP viability is 105%.

As for `CCN(CC)CCN[C@@H](C(=O)OCCC(C)C)c1ccccc1` [Camylofine chlorhydrate], the HCT116-GFP viability worked out at 102%.

For `CCC[C@@H]1C[C@@H](C(=O)N[C@@H]([C@H]2O[C@H](SC)[C@H](O)[C@@H](O)[C@H]2O)[C@@H](C)O)N(C)C1` [Lincomycin hydrochloride], the HCT116-GFP viability is 88.1%.

For `CC(C)(C)NC(=O)[C@H]1CC[C@H]2[C@@H]3CC[C@H]4NC(=O)C=C[C@]4(C)[C@H]3CC[C@]12C` [Finasteride], the HCT116-GFP viability is 97.3%.

On to `Nc1nc(N)c2nc(-c3ccccc3)c(N)nc2n1` [Triamterene], for which the HCT116-GFP viability is 72%.

As for `C=C1C(=O)O[C@H]2[C@H]1CC/C(C)=C/CC[C@@]1(C)O[C@@H]21` [Parthenolide], the HCT116-GFP viability is 1.84%.

On to `CCCCOc1ccc(C(=O)CCN2CCCCC2)cc1` [Dyclonine hydrochloride], for which the HCT116-GFP viability is 85%.

`CC(C)(C)CC(C)(C)c1ccc(OCCOCC[N+](C)(C)Cc2ccccc2)cc1` [Benzethonium chloride]: the HCT116-GFP viability came to 14.7%.

In the case of `Cn1nnc2c(C(N)=O)ncn2c1=O` [Temozolomide], the HCT116-GFP viability is 99.8%.

Consider `OC(CCN1CCCC1)(c1ccccc1)C1CCCCC1` (stereo unspecified) [Procyclidine hydrochloride], for which the HCT116-GFP viability was determined as 110%.

With `CC(C)NCC(O)COc1cccc2[nH]ccc12` (stereo unspecified) [Pindolol], the HCT116-GFP viability was found to be 110%.

On to `CC(CN(C)C)CN1c2ccccc2CCc2ccccc21` (stereo unspecified) [Trimipramine maleate salt], for which the HCT116-GFP viability is 88.3%.

For the compound `CC(C)C(=O)c1c(C(C)C)nn2ccccc12` [Ibudilast], the HCT116-GFP viability was found to be 114%.

Take `NCCc1ccc(O)c(O)c1` [Dopamine hydrochloride]: the HCT116-GFP viability was found to be 70.3%.

For the compound `CC1(C)O[C@@H]2C[C@H]3[C@@H]4C[C@H](F)C5=CC(=O)C=C[C@]5(C)[C@H]4[C@@H](O)C[C@]3(C)[C@]2(C(=O)CO)O1` [Flunisolide], the HCT116-GFP viability worked out at 127%.

For the compound `CN(Cc1cc(Br)cc(Br)c1N)C1CCCCC1` [Bromhexine hydrochloride], the HCT116-GFP viability was 89.6%.

Regarding `C[C@H](CS)C(=O)N1CCC[C@H]1C(=O)O` [Captopril], the HCT116-GFP viability turned out to be 100%.

For `Cc1c(Nc2ncccc2C(=O)O)cccc1C(F)(F)F` [Flunixin meglumine], the HCT116-GFP viability amounted to 97%.

With `CC[C@H](c1ccc(O)cc1)[C@@H](CC)c1ccc(O)cc1` [Hexestrol], the HCT116-GFP viability worked out at 108%.

As for `CCc1nn(CCCN2CCN(c3cccc(Cl)c3)CC2)c(=O)n1CCOc1ccccc1` [Nefazodone hydrochloride], the HCT116-GFP viability was 85.6%.

Consider `CCCNC(C)(C)COC(=O)c1ccccc1` [Meprylcaine hydrochloride], for which the HCT116-GFP viability came to 94%.

Consider `CCC1(C)CC(=O)NC1=O` (stereo unspecified) [Ethosuximide], for which the HCT116-GFP viability was 101%.

With `NC1CCN(c2c(F)cc3c(=O)c(C(=O)O)cn(C4CC4)c3c2Cl)C1` (stereo unspecified) [Clinafloxacin], the HCT116-GFP viability stood at 102%.

`C[N+](C)(CCOc1ccccc1)Cc1ccccc1.O=C([O-])c1cc2ccccc2cc1O` [Bephenium hydroxynaphthoate]: the HCT116-GFP viability was 89.1%.

With `CC(NCCc1ccc(O)cc1)C(O)c1ccc(O)cc1` (stereo unspecified) [Ritodrine hydrochloride], the HCT116-GFP viability turned out to be 92.9%.

With `CCCc1nn(C)c2c(=O)[nH]c(-c3cc(S(=O)(=O)N4CCN(C)CC4)ccc3OCC)nc12` [Sildenafil], the HCT116-GFP viability stood at 86%.

For the origin of these results see the supplement of paper PMC9938546.
